Assay [1] addresses T1, human CCR8 (hCCR8) (human, UniProt P51685 1-355).
T1 construct: On transfected HEK293/HEK293T cells, or naturally expressed on HuT-78 cells; also called C-C chemokine receptor type 8
Briefly: flow cytometry on HEK293-hCCR8 cells; normalized to parental clone.

Assay [2] has as its target T1, human CCR8 (hCCR8). Briefly: flow cytometry on HuT-78 cells, VHH-Fc fusion; normalized to VHH-2.
Assay [3] deals with T1, human CCR8 (hCCR8). Briefly: flow cytometry on HuT-78 cells, VHH-Fc fusion.
T1 sequence (P51685 whole entry, the tested form may be a part): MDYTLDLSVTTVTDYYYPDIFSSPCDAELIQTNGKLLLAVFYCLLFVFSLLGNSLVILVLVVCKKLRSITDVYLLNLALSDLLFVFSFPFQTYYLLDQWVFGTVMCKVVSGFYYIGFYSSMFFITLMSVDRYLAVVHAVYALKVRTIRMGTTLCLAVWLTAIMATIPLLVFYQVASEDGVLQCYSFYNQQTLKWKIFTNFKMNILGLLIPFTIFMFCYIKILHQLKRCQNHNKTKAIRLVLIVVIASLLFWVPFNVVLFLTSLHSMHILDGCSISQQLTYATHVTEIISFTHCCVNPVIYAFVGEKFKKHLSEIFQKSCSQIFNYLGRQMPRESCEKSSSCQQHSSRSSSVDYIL
For assay [4], the target named is T1, human CCR8 (hCCR8). Briefly: cell-based or functional assay.
Assay [5] concerns the target T1, human CCR8 (hCCR8). Briefly: flow cytometry on HuT-78 cells, VHH-Fc fusion; normalized to VHH-1.
For assay [6], the target named is T1, human CCR8 (hCCR8). Briefly: flow cytometry on HEK293-hCCR8 cells.
Assay [7] has as its target T1, human CCR8 (hCCR8). Briefly: flow cytometry on HEK293-hCCR8 cells; normalized to VHH-1-Fc.
Assay [8] addresses T1, human CCR8 (hCCR8). Briefly: flow cytometry on HEK293-hCCR8 cells, VHH-Fc; normalized to wild type VHH-2-Fc.
Assay [9] deals with T1, human CCR8 (hCCR8). Briefly: flow cytometry on HEK293-hCCR8 cells, VHH-Fc.
Assay [10] deals with T1, human CCR8 (hCCR8). Briefly: flow cytometry on HEK293-hCCR8 cells; normalized to VHH-2-Fc.

This is an account of results in patent publication US20250092146A1 (ABILITA BIO, published 2025).

Changes are numbered by the printed parent chain. Names and notes keep the numbering of the source.

B1: VHH-2.2-Fc (Fc fusion)
chain: EVQLVESGGGLVQPGGSLRLSCAVSGSTSTINRFAWYRQAPGKGLEWVAATSSRTSPNYADSVKGRFTFSRDNSKNTVYLQMNSLRAEDTAVYYCQARMAMGSSQVVYWGQGTTVTVSS[human IgG1 Fc not given here]
notes: Humanized VHH-2, version 2, fused directly to the short hinge of human IgG1 Fc
On to B1, for which the “Bmax %” value in [1] was 78.7%.

B2: VHH-2.3-3-Fc (Fc fusion)
chain: B1 chain with L45R, W47L, P57L
notes: Against VHH-2.3 (IMGT): P65L
B2: the “Normalized Bmax (%)” value in [2] is 83.3%. In [3], the EC50 was found to be 1.7 nM.

B3: VHH-2.3-1-Fc (Fc fusion)
chain: B1 chain with L45R, W47L, D72G
notes: Against VHH-2.3 (IMGT): D81G
Turning to B3, in assay [2], the “Normalized Bmax (%)” value is 118%. The molecule also gave an EC50 in assay [3] of 0.23 nM.

B4: VHH-1.2-Fc (Fc fusion)
chain: EVQLVESGGGLVQPGGSLRLSCAASGSTSSIRRIGWYRQAPGKGLEWVARFSSGGGTNYADSVKGRFTISGDNSKNTMYLQMNSLRAEDTAVYYCSARRLLGTSRVDYWGQGTTVTVSS[human IgG1 Fc not given here]
notes: Humanized VHH-1, version 2, fused directly to the short hinge of human IgG1 Fc
For the molecule B4, in assay [1], the “Bmax %” value was 119%.

B5: VHH-1.3-21-Fc (Fc fusion)
chain: B4 chain with A24V, R33G, L45R, W47L, S52I, G71A, T114Q
notes: Against VHH-1.3 (IMGT): A25V, R38G, S57I, G81A
Consider B5, for which, in assay [4], the “EC50 (nM), ADCC reporter assay, human FcγRIIIa effector cells, HuT-78 target cells” value (shortened to “EC50 (nM), ADCC reporter assay”) was 0.19 nM and the “Fold Induction, ADCC reporter assay, human FcγRIIIa effector cells, HuT-78 target cells” value (“Fold Induction, ADCC reporter assay” below) is 6.68 fold. The “Normalized Bmax (%)” value in assay [5] is 134%. In assay [3], this molecule came in with a concentration for a half-maximal effect (EC50) of 1.62 nM.

B6: VHH-1.3-17-Fc (Fc fusion)
chain: B4 chain with A24V, R32V, L45R, W47L, R50H, N73K, R99I
notes: Against VHH-1.3 (IMGT): R37V, R55H, R108I, N83K
With B6, in assay [4], the “EC50 (nM), ADCC reporter assay” value is 0.24 nM and the “Fold Induction, ADCC reporter assay” value is 3.92 fold. Also, in assay [5], the “Normalized Bmax (%)” value is 72.8%. The molecule also came in with a 50% effective concentration (EC50) in assay [3] of 0.67 nM.

B7: VHH-1.3-20-Fc (Fc fusion)
chain: B4 chain with A24V, R33G, L45R, W47L, S52I, R99I, T114Q
notes: Against VHH-1.3 (IMGT): A25V, R38G, S57I, R108I
Take B7: in assay [4], the “EC50 (nM), ADCC reporter assay” value is 0.65 nM and the “Fold Induction, ADCC reporter assay” value was 3.98 fold. The “Normalized Bmax (%)” value in assay [5] was 108%. Besides, the response in [3] was half-maximal at 0.49 nM (EC50).

B8: VHH-5-Fc (Fc fusion)
chain: QVQLQESGGGLVQAGGSLRLSCVASGSTSSIRRIGWYRQAPGKQRELVARFSSGGGTNYADFVKGRFTISGDNAKNTMYLQMNSLKPEDTAVYYCNARRLLGTSRVDYWGQGTQVTVSS[human IgG1 Fc not given here]
Consider B8, for which the 50% effective concentration (EC50) in assay [6] turned out to be 3.29 nM. The molecule also yielded a Bmax % in assay [7] of 104%.

B9: VHH-12-Fc (Fc fusion)
chain: B8 chain with S52T, N96S, Y108S
Consider B9, for which the response in [6] was half-maximal at 1.72 nM (EC50). For the same molecule, the Bmax % in assay [7] came out at 91.8%.

B10: VHH-6-Fc (Fc fusion)
chain: B8 chain with N96S, V106Y
B10 came in with an EC50 in [6] of 3.1 nM. In addition, the Bmax % in [7] is 65.8%.

B11: VHH-8-Fc (Fc fusion)
chain: B8 chain with G56S, N96S, T103L
B11 gave an EC50 in [6] of 4.19 nM. The Bmax % in assay [7] was 99.7%.

B12: VHH-10-Fc (Fc fusion)
chain: B8 chain with G56S, N96S, D107N
For the molecule B12, in assay [6], the EC50 came out at 1.44 nM. Moreover, the Bmax % in assay [7] was 76.4%.

B13: VHH-9-Fc (Fc fusion)
chain: B8 chain with G56S, N96S, V106Y
In turn, B13 gave a concentration for a half-maximal effect (EC50) in assay [6] of 4.35 nM. The Bmax % in [7] came out at 71.1%.

B14: VHH-7-Fc (Fc fusion)
chain: B8 chain with S52T
As for B14, the response in [6] was half-maximal at 4.07 nM (EC50). This molecule also came in with a Bmax % in assay [7] of 105%.

B15: VHH-11-Fc (Fc fusion)
chain: B8 chain with S52T, N96S, D107G
B15 yielded an EC50 in assay [6] of 1.82 nM. In addition, the Bmax % in [7] was determined as 63.5%.

B16: VHH-2-Fc S28A (Fc fusion)
chain: QVQLQESGGGLVQAGGSLRLTCAVSGATSTINRFAWYRQAPGKQRELVAATSSRTSPNYADSVKGRFRFSRDNARSAVYLQMDNLRPEDTAVYFCQARMAMGSSQVVYWGLGTQVTVSS[human IgG1 Fc not given here]
notes: rest as VHH-2-Fc
Take B16: the “% Bmax” value in [8] came to 68%. In assay [9], this molecule registered an EC50 of 1.61 nM.

B17: VHH-2-Fc P61A (Fc fusion)
chain: B16 chain with A27S, P57A
For B17, in assay [8], the “% Bmax” value turned out to be 59%. The molecule further gave an EC50 in assay [9] of 1.18 nM.

B18: VHH-2-Fc S112A (Fc fusion)
chain: B16 chain with A27S, S103A
notes: rest as VHH-2-Fc
On to B18, for which the “% Bmax” value in assay [8] was determined as 88%. The response in assay [9] was half-maximal at 0.89 nM (EC50).

B19: VHH-2-Fc S30A (Fc fusion)
heavy: B16 chain with A27S, S29A
notes: rest as VHH-2-Fc
As to B19, in assay [8], the “% Bmax” value is 66%. For the same molecule, the concentration giving a half-maximal response (EC50) in assay [9] stood at 1.62 nM.

B20: VHH-17-Fc (Fc fusion)
chain: B16 chain with A27S, Q105W
Consider B20, for which the half-maximal effective concentration (EC50) in assay [6] came to 1.54 nM. Also, the Bmax % in assay [10] came out at 80.4%.

B21: VHH-2-Fc S113A (Fc fusion)
chain: B16 chain with A27S, S104A
notes: rest as VHH-2-Fc
Consider B21, for which, in assay [8], the “% Bmax” value is 48%. The molecule also displayed an EC50 in [9] of 0.9 nM.

B22: VHH-2-Fc S58A (Fc fusion)
heavy: B16 chain with A27S, S53A
notes: rest as VHH-2-Fc
For B22, in assay [8], the “% Bmax” value is 65%. Besides, the response in assay [9] was half-maximal at 1.02 nM (EC50).

B23: VHH-2-Fc V116A (Fc fusion)
chain: B16 chain with A27S, V107A
notes: rest as VHH-2-Fc
Turning to B23, the “% Bmax” value in [8] was 72%. In addition, the EC50 in [9] stood at 0.83 nM.

B24: VHH-2-Fc T29A (Fc fusion)
chain: B16 chain with A27S, T28A
notes: rest as VHH-2-Fc
B24: in assay [8], the “% Bmax” value was found to be 65%. In addition, the EC50 in [9] came to 1.43 nM.

B25: VHH-14-Fc (Fc fusion)
chain: B16 chain with A27S, R54G, M99L
The molecule B25 came in with an EC50 in assay [6] of 4.28 nM. In assay [10], this molecule had a Bmax % of 85.6%.

B26: VHH-2-Fc Y117A (Fc fusion)
chain: B16 chain with A27S, Y108A
notes: rest as VHH-2-Fc
Turning to B26, the “% Bmax” value in assay [8] was found to be 76%. Also, a half-maximal effect in assay [9] (EC50) was put at 0.86 nM.

B27: VHH-16-Fc (Fc fusion)
chain: B16 chain with A27S, T55G, A100T
Turning to B27, in [6], the midpoint of the response, the EC50, lay at 1.1 nM. For the same molecule, the Bmax % in assay [10] stood at 69.5%.

B28: VHH-21-Fc (Fc fusion)
chain: B16 chain with A27S, T55G, G102A
In assay [6], B28 showed an EC50 of 1.58 nM. The molecule also had a Bmax % in [10] of 69.1%.

B29: VHH-2-Fc T35A (Fc fusion)
heavy: B16 chain with A27S, T30A
notes: rest as VHH-2-Fc
For B29, the “% Bmax” value in assay [8] was determined as 65%. In [9], this molecule gave an EC50 of 0.87 nM.

B30: VHH-18-Fc (Fc fusion)
chain: B16 chain with A27S, R33A, Q105R
B30 showed an EC50 in assay [6] of 1.35 nM. In addition, the Bmax % in assay [10] was determined as 70.7%.

B31: VHH-19-Fc (Fc fusion)
chain: B16 chain with A27S, T30S, S103V
B31: in [6], a half-maximal response (EC50) required 0.66 nM. The molecule further yielded a Bmax % in assay [10] of 72%.

B32: VHH-2-Fc V115A (Fc fusion)
chain: B16 chain with A27S, V106A
notes: rest as VHH-2-Fc
On to B32, for which, in [8], the “% Bmax” value came out at 11%. This molecule also registered an EC50 in assay [9] of 1.34 nM.

B33: VHH-15-Fc (Fc fusion)
chain: B16 chain with A27S, T55G, M99R
In assay [6], B33 had a 50% effective concentration (EC50) of 1.16 nM. The molecule further came in with a Bmax % in assay [10] of 95.4%.

B34: VHH-2-Fc S57A (Fc fusion)
heavy: B16 chain with A27S, S52A
notes: rest as VHH-2-Fc
As for B34, in assay [8], the “% Bmax” value amounted to 69%. This molecule came in with an EC50 in [9] of 1.03 nM.

B35: VHH-2-Fc S63A (Fc fusion)
chain: B16 chain with A27S, S56A
notes: rest as VHH-2-Fc; Printed position is doubtful
Turning to B35, the “% Bmax” value in assay [8] came to 70%. Besides, the EC50 in assay [9] amounted to 1.08 nM.

B36: VHH-13-Fc (Fc fusion)
chain: B16 chain with A27S, Q96N
The molecule B36 displayed an EC50 in assay [6] of 1.38 nM. In assay [10], this molecule yielded a Bmax % of 51.8%.

B37: VHH-20-Fc (Fc fusion)
chain: B16 chain with A27S, V107D
On to B37, for which the 50% effective concentration (EC50) in assay [6] was 3.26 nM. In addition, in assay [10], the Bmax % amounted to 72.1%.
